Results reported in publication PMC7819943, “Rice protein-binding microarrays: a tool to detect cis-acting elements near promoter regions in rice”.
Some of the results follow.

target: T1, OsWOX13 (Oryza sativa, UniProt Q5QMM3 1-267); assay: protein-binding microarray (RPBM); PBS, 2% BSA, 51.3 ng/ul salmon testes DNA, 50 uM zinc acetate, 200 nM TF, 25 C, 1 h; high values mean tight binding; settings: protein: recombinant; tags: N-terminal polyhistidine and DsRed monomer fusion (pET32a); label: CyDye5-dUTP incorporated in the synthesized complementary strand; 3' TTTTT single-stranded linker to array surface; dsDNA, one strand shown
T1 sequence: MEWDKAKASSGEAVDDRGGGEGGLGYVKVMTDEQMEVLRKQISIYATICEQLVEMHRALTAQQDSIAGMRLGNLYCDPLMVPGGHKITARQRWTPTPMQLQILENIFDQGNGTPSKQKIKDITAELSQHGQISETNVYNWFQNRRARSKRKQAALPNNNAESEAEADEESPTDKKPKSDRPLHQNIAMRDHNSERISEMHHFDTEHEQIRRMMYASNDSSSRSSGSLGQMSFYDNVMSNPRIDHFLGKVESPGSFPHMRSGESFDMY
How it was run: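 A custom Agilent array was converted to double-stranded form by primer extension with Cy5-dUTP and blocked with 2% BSA. Protein at 200 nM in PBS with 2% BSA, salmon testes DNA and 50 µM zinc acetate was applied for 1 h at 25 °C, followed by washing. The proteins were polyhistidine–DsRed N-terminal fusions of transcription factors, expressed in E. coli BL21-CodonPlus and Ni–NTA-purified. The binding signal is per-feature fluorescence intensity (arbitrary units) from an Axon 4000B scanner.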

Q: “AATAAATAATTGTCATAATTACCCAATAAGTCCAGCTAACCGGAGTCACCTAGTGCAG” was tested. Which binding signal did it give?
A: The binding signal was 26600 fluorescence intensity (a.u.).

Q: With “CCGAACAGAGCCATAATTAAATTGGGAATACCCTGAATGACGGAGTCACCTAGTGCAG” as the sequence, how does the binding signal read?
A: The binding signal was 7060 fluorescence intensity (a.u.).

Q: How did the binding signal turn out when “AGAGCAATTGACTGACATACCATTATTAAGATGAACTGATCGGAGTCACCTAGTGCAG” was run?
A: Its binding signal is 21100 fluorescence intensity (a.u.).

Q: “GCATGATTTGATCGTTTGCCTATAGAAAGTTAATTTAGTACGGAGTCACCTAGTGCAG” was tested. Which binding signal did it give?
A: Its binding signal is 16500 fluorescence intensity (a.u.).

Q: Which binding signal does the source give for “GCACATCTTCCTTAATTGCCAAAAGAGTAAATTTCACGAACGGAGTCACCTAGTGCAG” here?
A: Its binding signal is 8910 fluorescence intensity (a.u.).

Q: Which binding signal does the source give for “CACGGAAAATAAATTGAGGGAAGCTGTGGAGGTGCCGAGTCGGAGTCACCTAGTGCAG” here?
A: Its binding signal is 8360 fluorescence intensity (a.u.).

Q: How did the binding signal turn out when “TTTTAATGTAATTTTCTCGCAAAATGAAAATTATGACATCCGGAGTCACCTAGTGCAG” was run?
A: The binding signal was 7470 fluorescence intensity (a.u.).

Q: For “ATTTTATCAATCACGCCCATAAAATTTGGACGCAACTAGTCGGAGTCACCTAGTGCAG”, which binding signal is on record?
A: Its binding signal is 33000 fluorescence intensity (a.u.).

Q: How did the binding signal turn out when “AAATAATTAATGACCTCCTAATATTTCATCATCGTCTTCTCGGAGTCACCTAGTGCAG” was run?
A: Its binding signal is 17800 fluorescence intensity (a.u.).

Q: How did the binding signal turn out when “AACCAATCAATCGTTAGAAAGATCACCTCCAGGGCTCCAGCGGAGTCACCTAGTGCAG” was run?
A: The binding signal was 27800 fluorescence intensity (a.u.).

Q: How did the binding signal turn out when “CTCAAAGTCTCAAACCCAGCAGTTAGCAACTTCCATTTCTCGGAGTCACCTAGTGCAG” was run?
A: Its binding signal is 4880 fluorescence intensity (a.u.).

Q: For “TGTGATAGGCTTCAATGTTTAATCTCACCATCGATTGTTACGGAGTCACCTAGTGCAG”, which binding signal is on record?
A: Its binding signal is 5800 fluorescence intensity (a.u.).

Q: With “ATATCGAAATTGATGCTTGACCAGTCAACACTACTTAATCCGGAGTCACCTAGTGCAG” as the sequence, how does the binding signal read?
A: The binding signal was 9110 fluorescence intensity (a.u.).

Q: Which binding signal does the source give for “CAGACTAAATTTCAGTCATTGAATGATGAAAAGAAAGCACCGGAGTCACCTAGTGCAG” here?
A: Its binding signal is 19600 fluorescence intensity (a.u.).

Q: With “TACACCGATCCATGATTGGTACATAGTACGCCGGTGAATCCGGAGTCACCTAGTGCAG” as the sequence, how does the binding signal read?
A: The binding signal was 14000 fluorescence intensity (a.u.).

Q: Which binding signal does the source give for “GATTGGATTGGATTGTTTTGCTGGCTCGCTCTCTCTCTCTCGGAGTCACCTAGTGCAG” here?
A: The binding signal was 13600 fluorescence intensity (a.u.).

Q: For “ACTTGATGACATCATACTGACATGGGCGTCCGATTCCTAGCGGAGTCACCTAGTGCAG”, which binding signal is on record?
A: The binding signal was 16500 fluorescence intensity (a.u.).

Q: How did the binding signal turn out when “ATAATTATGCTTCTGTTTTAAGTACCTCGTCATAATGAAGCGGAGTCACCTAGTGCAG” was run?
A: Its binding signal is 3900 fluorescence intensity (a.u.).

Q: With “GGCATGACAGGAGCAGTTTCCTTCTTGGATTCAGATTCCCCGGAGTCACCTAGTGCAG” as the sequence, how does the binding signal read?
A: The binding signal was 3790 fluorescence intensity (a.u.).

Q: For “ATATAATAGATTAACTATAAAGTTGGCTATAATATATTTCCGGAGTCACCTAGTGCAG”, which binding signal is on record?
A: The binding signal was 6360 fluorescence intensity (a.u.).

Q: Which binding signal does the source give for “TGTTAATTACCGCAAACCAGAATTGGTTTTCTTAACATGCCGGAGTCACCTAGTGCAG” here?
A: The binding signal was 40500 fluorescence intensity (a.u.).

Q: With “ATACTCCAATCAACCAACCCGTCATATGGGACGCCATTATCGGAGTCACCTAGTGCAG” as the sequence, how does the binding signal read?
A: The binding signal was 16300 fluorescence intensity (a.u.).

Q: For “CATGTATTACACTAGTATTAATTGATCCGGGAAAATCTAGCGGAGTCACCTAGTGCAG”, which binding signal is on record?
A: The binding signal was 10200 fluorescence intensity (a.u.).
